# Laboratory results taken from PubChem BioAssay AID360 (National Center for Advancing Translational Sciences (NCATS), 2006).
# The whole screen tested about 48,000 compounds, of which about 550 (1.1%) were called active. Inconclusive results (about 4%) are left out. No stated cut-off is given here; in the data, active means potency below about 15 µM; inconclusive means mostly about 16 µM to 33 µM; inactive means weaker than that. The list shows a part of the results.
# Molecular target: Lysosomal acid glucosylceramidase (Homo sapiens) (UniProt P04062)
# Assay: Glucocerebrosidase;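 further: the screen sought inhibitors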
# Conditions: purified enzyme, resorufin glucoside fluorescence (screen aimed at inhibitors), 20 min
# Outline: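 Wild-type enzyme at 0.2 nM final in 50mM citric acid/KH2PO4, 10mM sodium taurocholate, 0.01% tween-20, pH 5.9, with resorufin beta-D-glucopyranoside at 30 uM final. Compounds titrated, 20 min at RT, red fluorescence read; AC50 from titration.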
# Potency means the concentration at half of the fitted maximal effect.
# UniProt P04062, sequence (P04062 whole entry, looked up): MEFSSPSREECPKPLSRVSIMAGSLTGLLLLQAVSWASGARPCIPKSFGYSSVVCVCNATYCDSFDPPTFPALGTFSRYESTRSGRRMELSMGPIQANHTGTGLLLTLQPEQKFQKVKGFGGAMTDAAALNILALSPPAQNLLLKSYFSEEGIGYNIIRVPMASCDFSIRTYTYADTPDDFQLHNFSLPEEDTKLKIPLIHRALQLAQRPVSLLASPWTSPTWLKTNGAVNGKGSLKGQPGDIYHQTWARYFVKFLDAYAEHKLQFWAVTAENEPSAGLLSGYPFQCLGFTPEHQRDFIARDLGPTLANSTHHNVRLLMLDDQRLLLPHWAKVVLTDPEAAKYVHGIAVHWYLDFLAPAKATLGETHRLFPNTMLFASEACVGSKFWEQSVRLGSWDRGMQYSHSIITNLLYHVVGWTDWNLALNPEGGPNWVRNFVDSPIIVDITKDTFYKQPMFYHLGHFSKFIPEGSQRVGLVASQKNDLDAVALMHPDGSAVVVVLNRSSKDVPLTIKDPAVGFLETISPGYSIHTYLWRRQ
row,Structure (SMILES),Potency
1,COc1cc(CNCc2ccc(OC)c(OC)c2OC)cc(OC)c1,inactive: > 76.9 µM
2,COc1cc(OC)cc(N(C(=O)c2ccco2)C(C(=O)NC2CCCC2)c2ccc(N(C)C)cc2)c1 (centres undefined),inactive
3,O=C(CSc1nnc(-c2ccc(F)cc2)o1)Nc1ccc(S(=O)(=O)N2CCCCCC2)cc1,inactive: > 76.9 µM
4,COc1ccccc1OC1=NS(=O)(=O)c2ccccc21,inactive: > 76.9 µM
5,Cn1c(=O)c2c(nc(N3CCCCC3)n2CCSc2nc3ccccc3s2)n(C)c1=O,inactive: > 76.9 µM
6,CCn1c(SCC(=O)N2CCN(c3ccccc3F)CC2)nnc1-c1ccoc1C,inactive: > 76.9 µM
7,CCOc1cc(-c2nn3cnnc3s2)cc(OCC)c1OCC,inactive: > 76.9 µM
8,Cc1noc(C)c1CSc1nc2ccccc2c(=O)n1-c1ccccc1,inactive: > 76.9 µM
9,Cc1ccc(SC/C(O)=C(\C#N)c2nc3ccccc3s2)cc1,inactive: > 76.9 µM
10,COc1ccc(CNC(=O)C(C)N(Cc2ccco2)C(=O)c2snc(C(N)=O)c2N)cc1 (centres undefined),inactive: > 76.9 µM
11,C=CCn1c(COc2ccccc2F)nnc1SCC(=O)NC(=O)NCc1ccco1,inactive: > 76.9 µM
12,CCNc1nc(SCC(=O)OC)nc(N2CCOCC2)n1,inactive: > 76.9 µM
13,N#C/C(C(=O)N1CCOCC1)=C1\Nc2ccccc2S1,inactive: > 76.9 µM
14,COc1ccc(CC(C(=O)Nc2cccc(F)c2)c2nn[nH]n2)c(OC)c1 (centres undefined),inactive: > 76.9 µM
15,COc1ccc(OC)c(NC(=O)CCNS(=O)(=O)c2cccs2)c1,inactive: > 76.9 µM
16,COc1ccc(/C(O)=C2/C(=O)C(=O)N(CCN(C)C)C2c2ccc(OC)c(OC)c2)c(C)c1 (centres undefined),inactive: > 76.9 µM
17,CC(C)c1ccc(NC(=O)C2CC(=O)N(C(C)C)C2)cc1 (centres undefined),inactive: > 76.9 µM
18,Cc1cccn2c(=O)c3cc(C(=O)Nc4ccc(N(C)C)cc4)n(C)c3nc12,inactive: > 76.9 µM
19,CN(C)CCCNC(=O)CC(c1ccc(F)cc1)c1ccco1 (centres undefined),inactive: > 76.9 µM
20,CCOC(=O)C(NC(=O)c1cccnc1)(Nc1cccc(C)n1)C(F)(F)F (centres undefined),inactive: > 76.9 µM
21,COc1ccc(OC)c(NC2=NC3(CCCCC3)N=C(N)N2)c1,inactive: > 76.9 µM
22,O=C(CSc1nnc(CNC(=O)c2cccs2)o1)Nc1ccc2c(c1)OCO2,inactive: > 76.9 µM
23,CCCCc1cc(=O)oc2cc(OCc3nn[nH]n3)c(Cl)cc12,inactive: > 76.9 µM

row,Structure (SMILES),Potency
1,O=C(Nc1ccc(OC(F)F)c(Cl)c1)Nc1ccc2c(c1)OCO2,inactive: > 76.9 µM
2,Cc1ccc(C(=O)NCc2ccc3c(c2)OCO3)cc1S(=O)(=O)N1CCCCC1,inactive: > 76.9 µM
3,O=C(c1cccnc1)N1C2CCC1CC(O)(c1ccc(F)cc1)C2 (centres undefined),inactive: > 76.9 µM
4,CCC(=O)N1CCc2cc(S(=O)(=O)CCC(=O)Nc3ccc(C)c(F)c3)ccc21,inactive: > 76.9 µM
5,COc1cc2c(cc1OC)CN(C(=O)CSc1n[nH]c(N)n1)CC2,inactive: > 76.9 µM
6,O=C(Nc1cccc(NC(=O)c2cccnc2)c1)c1cccnc1,inactive: > 76.9 µM
7,CCn1cc(C(=O)Nc2cc3c(cc2NC(C)=O)OCCO3)c(=O)c2ccc(C)nc21,inactive: > 76.9 µM
8,Cc1c(C(=O)N2CCCCC2)sc(NC(=O)C(C)C)c1C#N,inactive: > 76.9 µM
9,CC(C)(C)C(=O)Cn1c(=N)n(Cc2ccccc2)c2ccccc21,inactive: > 76.9 µM
10,Cc1nc2ccc(C(=O)N3CCN(c4ccccn4)CC3)cc2s1,inactive: > 76.9 µM
11,CCc1nnc(NC(=O)C2CCN(S(=O)(=O)Cc3ccccc3)CC2)s1,active: 4.26 µM
12,CCOC(=O)N1CCN(C(=O)c2ccc(N(C)S(C)(=O)=O)cc2)CC1,inactive: > 76.9 µM
13,COc1ccc(-c2n[nH]c(C)c2-c2ccc(OC)c(OC)c2)c(O)c1,inactive: > 76.9 µM
14,C=CCOc1ccc(/C=N/n2cncn2)cc1OC,inactive: > 76.9 µM
15,CCOC(=O)NCc1ccc(S(=O)(=O)Nc2ccccc2C)cc1,inactive: > 76.9 µM
16,O=C(CSc1ccc2nnc(-c3ccc(F)cc3)n2n1)NCC1CCCO1 (centres undefined),inactive: > 76.9 µM
17,COc1cccc(CSc2nc3sc(C)c(C)c3c(=O)n2Cc2ccco2)c1,inactive: > 76.9 µM
18,CCOc1cc(S(=O)(=O)NCc2ccc3c(c2)OCO3)c(C)cc1C,inactive: > 76.9 µM
19,COC(=O)CSc1nsc(SCC(=O)OC)c1C#N,inactive: > 76.9 µM
20,COC(=O)[C@H](CCSC)NC(=O)NCc1ccccn1,inactive: > 76.9 µM
21,CCCCCOC(=O)Cn1c(SCC(=O)Nc2ccccc2)nc2c1c(=O)[nH]c(=O)n2C,inactive: > 76.9 µM
22,Cc1cccc2sc(NC(=O)C3CCCN(S(=O)(=O)c4cccc5nonc45)C3)nc12 (centres undefined),inactive: > 76.9 µM
23,O=C(CSc1nc2ccc(Cl)cc2[nH]1)NCc1ccco1,inactive: > 76.9 µM

row,Structure (SMILES),Potency
1,C=CCn1c(=O)c2ccccc2n2c(SC(C)C(=O)Nc3nc(-c4ccccc4)cs3)nnc12 (centres undefined),inactive: > 76.9 µM
2,COc1ccc(OC)c(NC(=O)CSc2nc3cccnc3n2C)c1,inactive: > 76.9 µM
3,CCOC(=O)c1csc(NC(=O)c2ccc(S(=O)(=O)N3CCCC3)cc2)n1,inactive: > 76.9 µM
4,O=C(CCC(=O)N1CCCC1)Nc1nnc(C(F)(F)F)s1,inactive: > 76.9 µM
5,CC1=C(C)C(=O)N(c2ccc(C(=O)O)cc2)C1=O,inactive: > 76.9 µM
6,CCN(C(=O)c1cn(C)c(=O)c2cc(OC)c(OC)cc12)c1ccccc1C,inactive: > 76.9 µM
7,CCOC(=O)c1ccc2c(c1)nc(SCc1cn3ccsc3n1)n2CC,inactive: > 76.9 µM
8,O=C(NCCCN1CCN(c2ccccc2F)CC1)C1CCN(S(=O)(=O)N2CCOCC2)CC1,inactive: > 76.9 µM
9,Cc1ccc(NC(=O)CSc2nnc(-c3ccccn3)n2C)cc1,inactive: > 76.9 µM
10,CCc1ccc2c(CN(CC)Cc3nc4ccccc4c(=O)[nH]3)cc(=O)oc2c1,inactive: > 76.9 µM
11,COC(=O)c1ccc(CSc2nc3c(cnn3-c3ccc(Cl)cc3)c(=O)[nH]2)o1,inactive: > 76.9 µM
12,Cc1ccc(C)c(N(CC(N)=O)S(C)(=O)=O)c1,inactive: > 76.9 µM
13,CC(=O)Nc1cccc(Oc2cc(C#N)c(C#N)cc2N2CCOCC2)c1,inactive: > 76.9 µM
14,COc1cc(Br)c(S(=O)(=O)Nc2c(C)n(C)n(-c3ccccc3)c2=O)cc1OC,inactive: > 76.9 µM
15,C=CCn1c(SCC(=O)NC(=O)NC2CCCC2)nnc1C1CCCCC1,inactive: > 76.9 µM
16,COc1nc(Nc2ccc(O)cc2)nc(OC(C(F)(F)F)C(F)(F)F)n1,inactive: > 76.9 µM
17,COc1ccc(S(=O)(=O)CCC(=O)NC2CCCCC2)cc1,inactive: > 76.9 µM
18,O=C(NC(=O)N1CCN(c2ccccc2F)CC1)c1ccccc1,inactive: > 76.9 µM
19,Cc1cccc2cc(C(c3nnnn3CC3CCCO3)N3CCCC4(CCCCC4)C3)c(=O)[nH]c12 (centres undefined),inactive: > 76.9 µM
20,O=[n+]1cc(-c2ccccc2)n([O-])c2c1CCC2,inactive: > 76.9 µM
21,Cc1cc(C(=O)Nc2c(C)nn(Cc3c(Cl)cccc3Cl)c2C)no1,inactive: > 76.9 µM
22,Cn1c(=O)c2c(nc(-n3ccnc3)n2Cc2ccccc2)n(C)c1=O,inactive: > 76.9 µM
23,COC(=O)c1ccc2ccn(CC(=O)NC(C)C)c2c1,inactive: > 76.9 µM

row,Structure (SMILES),Potency
1,Cc1nn(C)c(C)c1S(=O)(=O)N1CCCC(C(=O)NC2CCCCC2)C1 (centres undefined),inactive: > 76.9 µM
2,CC(C)CC1(C)NC(=O)NC1=O (centres undefined),inactive: > 76.9 µM
3,O=C(CCN1C(=O)C2C3C=CC(C3)C2C1=O)Nc1nccs1 (centres undefined),inactive: > 76.9 µM
4,O=C(O)CCc1ccc(-c2ccc(Br)cc2)n1Cc1ccco1,inactive: > 76.9 µM
5,O=C(NCC1CCNCC1)c1ccncc1,inactive: > 76.9 µM
6,CCOc1ccc(CCNC(=O)CN2CCN(Cc3ccc(F)cc3)C2=O)cc1OCC,inactive: > 76.9 µM
7,Nc1nnc(SCCN2C(=O)c3ccccc3S2(=O)=O)s1,inactive: > 76.9 µM
8,CCOC(=O)c1cc(-c2cc3ccccc3o2)nc2c1c(=O)[nH]c(=O)n2CCOC,inactive: > 76.9 µM
9,CC(=O)Nc1c2c3c(cccc3n(C)c1=O)C(=O)c1ccccc1-2,inactive: > 76.9 µM
10,COc1ccc(S(=O)(=O)N2CCC(C(=O)NC3CC3)CC2)cc1Cl,inactive: > 76.9 µM
11,CCc1ccc2nc3c(c(C(=O)O)c2c1)CCC3,inactive: > 76.9 µM
12,O=C(O)CSc1nc2c(c(=O)[nH]1)CCCC2,inactive: > 76.9 µM
13,COc1ccc(CCNc2ncnc3c2oc2ccccc23)cc1OC,inactive: > 76.9 µM
14,CC(=O)CCc1ccc(OCCCCn2cncn2)cc1,inactive: > 76.9 µM
15,CS(=O)(=O)N(CC(=O)N1CCOCC1)c1ccc2c3c(cccc13)CC2,inactive: > 76.9 µM
16,O=C1Cn2c(nc3ccccc32)-c2ccccc2N1,inactive: > 76.9 µM
17,CCOC(=O)c1cc(NC(=O)c2c(C)noc2C)cc(C(=O)OCC)c1,inactive: > 76.9 µM
18,O=C(Nc1ccc(-c2nc3ccccc3o2)cc1)C1CCCO1 (centres undefined),inactive: > 76.9 µM
19,COc1ccc(CNC(=O)c2cc(-c3ccc(OC)c(OC)c3)on2)cc1,inactive: > 76.9 µM
20,COc1ccc(-c2nnn(CC(=O)c3c[nH]c4ccccc34)n2)cc1OC,inactive: > 76.9 µM
